In PubChem BioAssay AID504832 (National Center for Advancing Translational Sciences (NCATS), 2011):
Values joined by “and” are separate entries in the source; they are usually repeats but may differ in a detail not shown here. Equal entries are not always repeated. Hit rate of the full screen: of about 310,000 compounds, about 18,000 (5.8%) were called active. The inconclusive results got no clear call from the source; some entries with a clear call stand among them for comparison. The call rests on the fitted dose curve; in most records, active means well fitted inhibition curve with a large enough effect; inconclusive means small, poorly fitted or top-dose-only effect, or another doubt; inactive means no such curve, though single readings can be large or run the other way. No potency is given beside an inconclusive call; the fits are too rough.

test: Primary qHTS for delayed death inhibitors of the malarial parasite plastid, 48 hour incubation; conditions: P. falciparum luciferase growth in erythrocytes; series mostly up to 28.7 µM; activity change, negative = inhibition: at the top concentration
Method in brief: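 Cell-based growth assay: transgenic P. falciparum expressing firefly luciferase, cultured in red cells within RPMI 1640 containing 0.5% w/v Albumax, 24 mM bicarbonate and gentamycin. A drop in luciferase activity indicates inhibition.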
On the % scale 0 is the no-effect control and ±100 the full control effect; potency means the concentration at half of the fitted maximal effect; tags describe the fitted curve by direction and shape.

SMILES	activity change, negative = inhibition	Potency
COC(=O)c1sccc1NC(=O)CSCCc1ccccn1	inactive: 7.82%	
COc1ccc(Cn2c(-c3ccc(OC)cc3)nc3ccccc32)cc1		inconclusive [inhibitor, single point]
Cc1cc(C)n(-c2ccn(Cc3ccc(Cl)cc3Cl)c(=O)n2)n1		inconclusive [inhibitor, single point]
Cc1ccc2[nH]c(=O)c(CN(CCCN3CCOCC3)C(=O)Nc3cccc(Cl)c3)cc2c1		active: 8.28 µM
CN(Cc1ccc(Cl)s1)C(=O)CCl		active: 9.28 µM
CCN(CC(=O)Nc1cccc(S(=O)(=O)N2CCOCC2)c1)Cc1ccccc1		inconclusive [inhibitor, single point]
CCNc1nc(NCC)n2c(SCC(=O)Nc3c(C)cccc3C)nnc2n1		inconclusive [inhibitor, single point]
CSCCC(NS(=O)(=O)c1ccc(C)cc1)C(=O)NCCc1c[nH]c2ccccc12 (configuration not stated)		inconclusive [inhibitor, single point]
Cc1ccc(CNC(=O)c2ccc(N3CCC4(CC3)CC(c3ccccc3)=NO4)c(NC(=O)c3ccc(Cl)c([N+](=O)[O-])c3)c2)cc1		inconclusive [inhibitor, single point]
O=C(CNS(=O)(=O)c1ccccc1)N1CCN(C(=O)c2ccco2)CC1	inactive: 39.3%	
O=C(c1ccc(F)cc1)C1CCN(CCn2c(=O)[nH]c3ccccc3c2=O)CC1		active: 10.7 µM and active: 6.57 µM
CCC(C)(C)NC(=O)C(c1ccc(O)cc1)N(Cc1ccco1)C(=O)CCC(=O)Nc1ccccn1 (configuration not stated)		inconclusive [inhibitor, single point]
COC(=O)C1=C(c2ccccc2OCc2ccccc2)C[C@@H]2CC[C@H]1N2C(=O)NCc1cccc(F)c1		active: 9.28 µM
CCOC(=O)c1c(NC(=O)C2CCN(S(=O)(=O)c3cccs3)CC2)sc(C)c1C		inconclusive [inhibitor, single point]
CCN(CC(=O)Nc1cc(Cl)ccc1C)C(=O)c1cc(S(=O)(=O)N2CCCCCC2)ccc1OC		inconclusive [inhibitor, partial curve, poor fit]
O=C(NCCc1ccc(Cl)cc1)C1CCN(S(=O)(=O)c2ccc(-n3cnnn3)cc2)CC1		inconclusive [inhibitor, single point]
CC1CC(C)(C)Nc2ccc(N=O)cc21 (configuration not stated)		inconclusive [inhibitor, single point]
FC(F)(F)C(Oc1nc(NC2CCCCC2)nc(N2CCOCC2)n1)C(F)(F)F		active: 11.7 µM
O=C(CCN1CCN(C/C=C/c2ccccc2)CC1)Nc1ccccc1F		inconclusive [inhibitor, single point]
O=C(NCC1CCCO1)c1ccc([N+](=O)[O-])s1 (configuration not stated)		inconclusive [inhibitor, partial curve, poor fit]
O=C(Cc1ccc(S(=O)(=O)N2CCOCC2)s1)N1CCN(S(=O)(=O)c2ccc(Cl)cc2)CC1		active: 7.38 µM

SMILES	activity change, negative = inhibition	Potency
O=C(NC(=S)Nc1ccccc1)c1csnn1	inactive: -2.56%	
CN1C(=O)CN=C(c2ccc(Cl)cc2)c2cc(Cl)ccc21		inconclusive [inhibitor, partial curve, poor fit]
COCCCNC(=O)CCc1c(C)nc2c(c(C)nn2-c2ccc(C)cc2)c1C		inconclusive [inhibitor, partial curve]
O=C(Cn1cc([N+](=O)[O-])cn1)Nc1cccnc1	inactive: 1.24%	
Cc1cc(C)c(NC(=O)Cn2c(=O)n(Cc3ccco3)c(=O)c3ccccc32)c(C)c1		active: 13.1 µM
Cc1ccc(NC(=O)c2cc(-c3ccccc3)n[nH]2)cc1	inactive: 76.7%	
Cc1nc2ccccc2n1/N=C/c1ccc([N+](=O)[O-])s1		active: 4.15 µM
CCN(CC)CCCNC(=O)c1nn(-c2ccc(OC)cc2OC)c(=O)c2ccccc12		inconclusive [inhibitor, partial curve, poor fit]
CCC(C)c1ccccc1N1CC(C(=O)Nc2cccc(S(=O)(=O)N3CCOCC3)c2)CC1=O (configuration not stated)		inconclusive [inhibitor, partial curve]
Cn1c(/C=C(\C#N)C(N)=S)ccc1-c1ccc(Br)cc1		inconclusive [inhibitor, single point]
CCCCNC(=S)N=Nc1c(O)n(Cc2ccccc2)c2ccccc12		active: 13.1 µM
COCCCNC(=S)NNC(=O)C1CC1c1ccc(C(C)(C)C)cc1 (configuration not stated)		inconclusive [inhibitor, partial curve, poor fit]
Cc1cccc(OCCCC(=O)NNC(=O)c2ccncc2)c1	inactive: 28.5%	
C=CCNC(=O)/C(=C/c1cn(-c2ccccc2)nc1-c1cccc([N+](=O)[O-])c1)NC(=O)c1ccccc1		inconclusive [inhibitor, single point]
CC(C)C(C)(C#N)NC(=O)CSc1nc2scc(-c3ccc(F)cc3)c2c(=O)n1Cc1ccccc1 (configuration not stated)		active: 9.28 µM
Cc1ccc([N+](=O)[O-])cc1N(CC(=O)Nc1ccc(S(=O)(=O)Nc2cccc(C(F)(F)F)c2)cc1)S(C)(=O)=O	inactive: 2.6%	
O=C(CSc1nnc(CNC(=O)C23CC4CC(CC(C4)C2)C3)n1-c1ccccc1)Nc1ccccc1		inconclusive [inhibitor, partial curve]
CN1CCN(Cc2nc3ccccc3c(=O)n2Cc2nc(-c3cccc([N+](=O)[O-])c3)cs2)CC1		inconclusive [inhibitor, single point]
CN(Cc1cn(-c2ccccc2)nc1-c1ccc2c(c1)OCO2)Cc1nccn1C		active: 11.7 µM
Cc1ccc(S(=O)(=O)NCc2cn3ccsc3n2)c(C)c1		inconclusive [inhibitor, partial curve, poor fit]
Cc1ccsc1C(=O)N1CC(=O)Nc2ccccc21		inconclusive [inhibitor, partial curve, poor fit]
